The supplement of paper PMC9588766
Where a name gives a salt, the structure may show the parent alone. The full ranking holds about 1,900 compounds; the median of “cell viability of compound + 1 nM pemigatinib relative to pemigatinib-only (DMSO) wells” is about 0.95, and the lowest 2% start at about 0.22. The list shows a part of the results.

System: PDC-DUC18828
Assay: cell viability of compound + 1 nM pemigatinib relative to pemigatinib-only (DMSO) wells (fraction); PDC-DUC18828 is a patient-derived cholangiocarcinoma cell line; higher = less growth inhibition
Conditions: first compound 1 µM; pemigatinib concentration 1 nM; 72 h
Experimental: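 Selleck Bioactive library screen in the patient-derived FGFR2 fusion-positive ICC cell line PDC-DUC18828 (500 cells/well). Each compound was tested at 1 uM with 1 nM pemigatinib, in triplicate, for 72 h. Viability was read by CellTiter-Glo and normalised to plate DMSO controls. Value is the paper's averaged normalised viability.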

Row | Compound | cell viability
1 | O=C1NC(=O)C(c2ccccc2)(c2ccccc2)N1 [Phenytoin] + CCN1C(=O)N(c2c(F)c(OC)cc(OC)c2F)Cc2cnc3[nH]c(CN4CCOCC4)cc3c21 [pemigatinib] | 0.943
2 | CC(C)(O)c1ccccc1CC[C@@H](SCC1(CC(=O)O)CC1)c1cccc(/C=C/c2ccc3ccc(Cl)cc3n2)c1 [Montelukast Sodium] + CCN1C(=O)N(c2c(F)c(OC)cc(OC)c2F)Cc2cnc3[nH]c(CN4CCOCC4)cc3c21 [pemigatinib] | 1.02
3 | O=C(Nc1ccccc1)Nc1ccc(-c2ccc(C(=O)[C@@H]3CCC[C@H]3C(=O)O)cc2)cc1 + CCN1C(=O)N(c2c(F)c(OC)cc(OC)c2F)Cc2cnc3[nH]c(CN4CCOCC4)cc3c21 [pemigatinib] | 1.02
4 | CN(C)C/C=C/C(=O)Nc1cc2c(Nc3ccc(F)c(Cl)c3)ncnc2cc1O[C@H]1CCOC1 [Afatinib (BIBW2992)] + CCN1C(=O)N(c2c(F)c(OC)cc(OC)c2F)Cc2cnc3[nH]c(CN4CCOCC4)cc3c21 [pemigatinib] | 0.735
5 | CN(C)C/C=C/C(=O)Nc1cc2c(Nc3ccc(F)c(Cl)c3)ncnc2cc1O[C@H]1CCOC1 [Afatinib (BIBW2992) Dimaleate] + CCN1C(=O)N(c2c(F)c(OC)cc(OC)c2F)Cc2cnc3[nH]c(CN4CCOCC4)cc3c21 [pemigatinib] | 0.726
6 | CCN(CC)CCCC(C)Nc1nc(C)cc(Nc2ccc3nc(C)cc(N)c3c2)n1 (stereo unspecified) + CCN1C(=O)N(c2c(F)c(OC)cc(OC)c2F)Cc2cnc3[nH]c(CN4CCOCC4)cc3c21 [pemigatinib] | 1.03
7 | COc1c(N2CCNC(C)C2)c(F)cc2c(=O)c(C(=O)O)cn(C3CC3)c12 (stereo unspecified) [Gatifloxacin] + CCN1C(=O)N(c2c(F)c(OC)cc(OC)c2F)Cc2cnc3[nH]c(CN4CCOCC4)cc3c21 [pemigatinib] | 1.01
8 | O=C(c1ccccc1)c1ccc2n1CCC2C(=O)O (stereo unspecified) [Ketorolac] + CCN1C(=O)N(c2c(F)c(OC)cc(OC)c2F)Cc2cnc3[nH]c(CN4CCOCC4)cc3c21 [pemigatinib] | 1.05
9 | C#CCC(Cc1cnc2nc(N)nc(N)c2n1)c1ccc(C(=O)N[C@@H](CCC(=O)O)C(=O)O)cc1 (stereo partly specified) [Pralatrexate] + CCN1C(=O)N(c2c(F)c(OC)cc(OC)c2F)Cc2cnc3[nH]c(CN4CCOCC4)cc3c21 [pemigatinib] | 0.973
10 | O=C(C[S+]([O-])Cc1ccco1)NC/C=C\COc1cc(CN2CCCCC2)ccn1 (stereo unspecified) [Lafutidine] + CCN1C(=O)N(c2c(F)c(OC)cc(OC)c2F)Cc2cnc3[nH]c(CN4CCOCC4)cc3c21 [pemigatinib] | 0.971
11 | CN(C)CC(c1ccc(O)cc1)C1(O)CCCCC1 (stereo unspecified) [Desvenlafaxine] + CCN1C(=O)N(c2c(F)c(OC)cc(OC)c2F)Cc2cnc3[nH]c(CN4CCOCC4)cc3c21 [pemigatinib] | 0.909
12 | CN(C)CC(c1ccc(O)cc1)C1(O)CCCCC1 (stereo unspecified) [Desvenlafaxine Succinate] + CCN1C(=O)N(c2c(F)c(OC)cc(OC)c2F)Cc2cnc3[nH]c(CN4CCOCC4)cc3c21 [pemigatinib] | 0.942
13 | O=C(NOCC(O)CO)c1cc(Br)c(F)c(F)c1Nc1ccc(I)cc1F (stereo unspecified) + CCN1C(=O)N(c2c(F)c(OC)cc(OC)c2F)Cc2cnc3[nH]c(CN4CCOCC4)cc3c21 [pemigatinib] | 0.814
14 | O=C(Nc1ccccc1Br)N[C@@H]1CCN(c2ccc(C(F)(F)F)cn2)C1 + CCN1C(=O)N(c2c(F)c(OC)cc(OC)c2F)Cc2cnc3[nH]c(CN4CCOCC4)cc3c21 [pemigatinib] | 0.929
15 | COc1ccc(S(=O)(=O)N(CCO)c2ccccc2CN(C)C/C=C/c2ccc(Cl)cc2)cc1 [KN-93 Phosphate] + CCN1C(=O)N(c2c(F)c(OC)cc(OC)c2F)Cc2cnc3[nH]c(CN4CCOCC4)cc3c21 [pemigatinib] | 0.988
16 | CCC(=O)Nc1cccc(Oc2nc(Nc3ccc(N4CCN(C)CC4)cc3OC)ncc2Cl)c1 + CCN1C(=O)N(c2c(F)c(OC)cc(OC)c2F)Cc2cnc3[nH]c(CN4CCOCC4)cc3c21 [pemigatinib] | 0.994
17 | C=CC(=O)Nc1cccc(Nc2nc(Nc3ccc(OCCOC)cc3)ncc2F)c1 + CCN1C(=O)N(c2c(F)c(OC)cc(OC)c2F)Cc2cnc3[nH]c(CN4CCOCC4)cc3c21 [pemigatinib] | 0.715
18 | N#Cc1c(NC(=O)c2cccc3ccccc23)sc2c1CCCC2 [JNK Inhibitor IX] + CCN1C(=O)N(c2c(F)c(OC)cc(OC)c2F)Cc2cnc3[nH]c(CN4CCOCC4)cc3c21 [pemigatinib] | 0.284

Row | Compound | cell viability
19 | CCc1c(Cl)c(O)c(Cl)c(O)c1C(=O)O[C@H]1[C@H](O)[C@H](OC)[C@H](OC/C2=C\C=C\C[C@H](O)/C(C)=C/[C@H](CC)[C@@H](O[C@@H]3OC(C)(C)[C@@H](OC(=O)C(C)C)[C@H](O)[C@@H]3O)/C(C)=C/C(C)=C/C[C@@H]([C@@H](C)O)OC2=O)O[C@@H]1C [Fidaxomicin] + CCN1C(=O)N(c2c(F)c(OC)cc(OC)c2F)Cc2cnc3[nH]c(CN4CCOCC4)cc3c21 [pemigatinib] | 0.92
20 | Nc1ccn([C@@H]2CS[C@H](CO)O2)c(=O)n1 [Lamivudine] + CCN1C(=O)N(c2c(F)c(OC)cc(OC)c2F)Cc2cnc3[nH]c(CN4CCOCC4)cc3c21 [pemigatinib] | 0.972
21 | COc1ccccc1OCC(O)COC(N)=O (stereo unspecified) [Methocarbamol] + CCN1C(=O)N(c2c(F)c(OC)cc(OC)c2F)Cc2cnc3[nH]c(CN4CCOCC4)cc3c21 [pemigatinib] | 1.02
22 | O=C1NCCCc2c1oc1ccc(O)cc21 + CCN1C(=O)N(c2c(F)c(OC)cc(OC)c2F)Cc2cnc3[nH]c(CN4CCOCC4)cc3c21 [pemigatinib] | 0.98
23 | COC(=O)Nc1nc2cc([S+]([O-])c3ccccc3)ccc2[nH]1 (stereo unspecified) [Oxfendazole] + CCN1C(=O)N(c2c(F)c(OC)cc(OC)c2F)Cc2cnc3[nH]c(CN4CCOCC4)cc3c21 [pemigatinib] | 0.92
24 | Cc1ccc2c(=O)c3cccc(CC(=O)O)c3oc2c1C [DMXAA (Vadimezan)] + CCN1C(=O)N(c2c(F)c(OC)cc(OC)c2F)Cc2cnc3[nH]c(CN4CCOCC4)cc3c21 [pemigatinib] | 1.03
25 | C[C@H]1O[C@@H](Oc2c(-c3cc(O)c(O)c(O)c3)oc3cc(O)cc(O)c3c2=O)[C@@H](O)[C@@H](O)[C@@H]1O [Myricitrin] + CCN1C(=O)N(c2c(F)c(OC)cc(OC)c2F)Cc2cnc3[nH]c(CN4CCOCC4)cc3c21 [pemigatinib] | 0.933
26 | C=C1/C(=C\C=C2/CCC[C@]3(C)[C@@H]([C@H](C)/C=C/[C@H](C)C(C)C)CC[C@@H]23)C[C@@H](O)C[C@@H]1O [Doxercalciferol] + CCN1C(=O)N(c2c(F)c(OC)cc(OC)c2F)Cc2cnc3[nH]c(CN4CCOCC4)cc3c21 [pemigatinib] | 0.948
27 | CCCCN1CCCCC1C(=O)Nc1c(C)cccc1C (stereo unspecified) [Bupivacaine HCl] + CCN1C(=O)N(c2c(F)c(OC)cc(OC)c2F)Cc2cnc3[nH]c(CN4CCOCC4)cc3c21 [pemigatinib] | 0.891
28 | CCOC(=O)c1[nH]c2cc(Cl)ccc2c1C(C(=O)NC(C)(C)C)N(C=O)Cc1ccc(Cl)cc1 (stereo unspecified) + CCN1C(=O)N(c2c(F)c(OC)cc(OC)c2F)Cc2cnc3[nH]c(CN4CCOCC4)cc3c21 [pemigatinib] | 0.933
29 | Cc1cc(Nc2nc(N[C@@H](C)c3ccc(F)cc3)c(C#N)cc2F)n[nH]1 + CCN1C(=O)N(c2c(F)c(OC)cc(OC)c2F)Cc2cnc3[nH]c(CN4CCOCC4)cc3c21 [pemigatinib] | 0.411
30 | CCOC(=O)c1c(CSc2ccccc2)n(C)c2cc(Br)c(O)c(CN(C)C)c12 [Arbidol HCl] + CCN1C(=O)N(c2c(F)c(OC)cc(OC)c2F)Cc2cnc3[nH]c(CN4CCOCC4)cc3c21 [pemigatinib] | 0.973
31 | CCN1CCN(Cc2ccc(-c3cc4c(N[C@H](C)c5ccccc5)ncnc4[nH]3)cc2)CC1 + CCN1C(=O)N(c2c(F)c(OC)cc(OC)c2F)Cc2cnc3[nH]c(CN4CCOCC4)cc3c21 [pemigatinib] | 0.92
32 | Cc1nc(Nc2ncc(C(=O)Nc3c(C)cccc3Cl)s2)cc(N2CCN(CCO)CC2)n1 [Dasatinib] + CCN1C(=O)N(c2c(F)c(OC)cc(OC)c2F)Cc2cnc3[nH]c(CN4CCOCC4)cc3c21 [pemigatinib] | 0.311
33 | CC(C(=O)O)c1ccc2c(c1)CC(=O)c1ccccc1S2 (stereo unspecified) [Zaltoprofen] + CCN1C(=O)N(c2c(F)c(OC)cc(OC)c2F)Cc2cnc3[nH]c(CN4CCOCC4)cc3c21 [pemigatinib] | 0.968
34 | Oc1cc2c(cc1O)[C@@H]1c3ccc(O)c(O)c3OC[C@]1(O)C2 [Hematoxylin] + CCN1C(=O)N(c2c(F)c(OC)cc(OC)c2F)Cc2cnc3[nH]c(CN4CCOCC4)cc3c21 [pemigatinib] | 0.897
35 | COc1ccc(CC2c3cc(OC)c(OC)cc3CC[N+]2(C)CCC(=O)OCCCCCOC(=O)CC[N+]2(C)CCc3cc(OC)c(OC)cc3C2Cc2ccc(OC)c(OC)c2)cc1OC (stereo unspecified) [Atracurium Besylate] + CCN1C(=O)N(c2c(F)c(OC)cc(OC)c2F)Cc2cnc3[nH]c(CN4CCOCC4)cc3c21 [pemigatinib] | 0.989
36 | CC(=O)[C@H]1CC[C@H]2[C@@H]3CC=C4C[C@@H](O)CC[C@]4(C)[C@H]3CC[C@]12C [Pregnenolone] + CCN1C(=O)N(c2c(F)c(OC)cc(OC)c2F)Cc2cnc3[nH]c(CN4CCOCC4)cc3c21 [pemigatinib] | 1
